For one substance, binding results are on record in PMC11408250.

By UniProt entry, the sequences of proteins in these tests, tags left out.
UniProt P35222: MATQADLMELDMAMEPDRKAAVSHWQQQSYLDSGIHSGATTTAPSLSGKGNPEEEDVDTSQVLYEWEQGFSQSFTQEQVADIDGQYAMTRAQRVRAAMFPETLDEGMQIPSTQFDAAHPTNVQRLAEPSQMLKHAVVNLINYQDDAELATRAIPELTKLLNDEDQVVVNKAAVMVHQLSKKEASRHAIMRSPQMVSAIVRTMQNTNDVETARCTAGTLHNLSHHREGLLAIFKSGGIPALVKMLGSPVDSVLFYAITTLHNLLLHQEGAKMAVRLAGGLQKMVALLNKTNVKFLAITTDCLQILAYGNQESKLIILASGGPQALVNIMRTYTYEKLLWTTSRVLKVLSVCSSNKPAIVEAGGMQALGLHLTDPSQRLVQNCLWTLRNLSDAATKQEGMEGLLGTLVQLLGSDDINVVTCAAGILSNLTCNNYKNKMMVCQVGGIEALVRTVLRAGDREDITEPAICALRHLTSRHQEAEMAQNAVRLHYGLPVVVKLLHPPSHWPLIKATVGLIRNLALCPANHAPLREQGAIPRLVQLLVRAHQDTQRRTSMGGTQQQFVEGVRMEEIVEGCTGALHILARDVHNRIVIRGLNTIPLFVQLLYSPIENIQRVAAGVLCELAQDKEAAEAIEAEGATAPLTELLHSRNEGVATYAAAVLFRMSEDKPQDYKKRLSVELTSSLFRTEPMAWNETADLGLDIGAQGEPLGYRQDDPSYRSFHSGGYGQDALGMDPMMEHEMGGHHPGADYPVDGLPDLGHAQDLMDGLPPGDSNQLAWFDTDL

Residue numbers refer to the chain shown, from its start. These are yes or no findings as the source states them, for the method shown. In cells and extracts the contact can be indirect. Some entries that bind do so weakly or less than the wild type. Sequences can lack the tags named with a protein.

Assay [1] has as its target T1, Myc-PCDH19-FLAG full length (FL), isoform with Exon 2 (+Ex2) (human) (UniProt Q8TAB3).
T1 sequence: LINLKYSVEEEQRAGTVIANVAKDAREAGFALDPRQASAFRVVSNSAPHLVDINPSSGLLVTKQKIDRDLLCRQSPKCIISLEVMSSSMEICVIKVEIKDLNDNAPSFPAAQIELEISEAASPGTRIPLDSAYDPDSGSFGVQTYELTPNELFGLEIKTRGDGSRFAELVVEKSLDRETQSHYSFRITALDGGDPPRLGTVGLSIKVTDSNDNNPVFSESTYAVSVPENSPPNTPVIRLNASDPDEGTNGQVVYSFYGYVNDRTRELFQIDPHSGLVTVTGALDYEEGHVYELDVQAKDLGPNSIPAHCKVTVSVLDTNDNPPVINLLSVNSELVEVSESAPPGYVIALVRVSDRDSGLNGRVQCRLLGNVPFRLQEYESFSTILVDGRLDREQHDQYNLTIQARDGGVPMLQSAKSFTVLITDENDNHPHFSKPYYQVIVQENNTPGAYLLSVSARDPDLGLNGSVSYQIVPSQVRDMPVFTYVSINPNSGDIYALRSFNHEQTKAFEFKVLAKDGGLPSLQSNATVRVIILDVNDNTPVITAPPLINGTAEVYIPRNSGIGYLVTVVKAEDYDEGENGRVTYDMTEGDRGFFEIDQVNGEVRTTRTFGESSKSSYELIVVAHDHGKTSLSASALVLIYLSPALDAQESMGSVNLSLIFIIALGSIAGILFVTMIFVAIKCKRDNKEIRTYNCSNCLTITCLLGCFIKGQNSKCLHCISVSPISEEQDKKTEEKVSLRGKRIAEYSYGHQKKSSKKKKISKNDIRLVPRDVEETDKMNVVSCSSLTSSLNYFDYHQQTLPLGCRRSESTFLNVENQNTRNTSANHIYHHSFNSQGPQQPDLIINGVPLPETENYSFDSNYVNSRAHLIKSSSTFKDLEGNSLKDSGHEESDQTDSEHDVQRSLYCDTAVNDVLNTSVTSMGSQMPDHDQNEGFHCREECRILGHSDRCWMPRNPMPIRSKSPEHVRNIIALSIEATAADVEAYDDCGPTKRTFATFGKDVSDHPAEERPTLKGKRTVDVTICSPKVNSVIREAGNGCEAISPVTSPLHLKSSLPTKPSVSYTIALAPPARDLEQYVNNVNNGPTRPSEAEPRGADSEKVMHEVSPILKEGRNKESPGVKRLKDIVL
The experiment in a line: co-IP; HEK293T transfected with Myc-PCDH19-FLAG (isoforms, variants or fragments) and β-catenin-V5, with or without CDH2-HA; anti-FLAG agarose beads 1 hour at 4 °C; Wash Buffer; western blot with anti-Myc, anti-HA and anti-V5.

Assay [2] has as its target T2, Myc-PCDH19-FLAG p.V441E (+Ex2) (human) (UniProt Q8TAB3).
T2 sequence: T1 sequence with V420E
The description is as above.

On to “β-catenin-V5 (from UniProt P35222 1-781)”, for which the binding entry in assay [1] and in assay [2] was “binds” each time.
